No constants are given. Whether binding was seen depends on the method and setting. Some entries that bind do so weakly or less than the wild type.
Key:
[1] = target: T1, ZAR1^wt (Arabidopsis thaliana) (UniProt Q38834); assay: two-hybrid; Y4H: LexA-ZAR1 (full length or truncation) bait, 11 PBL preys, integrated ZED1^wt and integrated HopZ1a^wt
T1 sequence: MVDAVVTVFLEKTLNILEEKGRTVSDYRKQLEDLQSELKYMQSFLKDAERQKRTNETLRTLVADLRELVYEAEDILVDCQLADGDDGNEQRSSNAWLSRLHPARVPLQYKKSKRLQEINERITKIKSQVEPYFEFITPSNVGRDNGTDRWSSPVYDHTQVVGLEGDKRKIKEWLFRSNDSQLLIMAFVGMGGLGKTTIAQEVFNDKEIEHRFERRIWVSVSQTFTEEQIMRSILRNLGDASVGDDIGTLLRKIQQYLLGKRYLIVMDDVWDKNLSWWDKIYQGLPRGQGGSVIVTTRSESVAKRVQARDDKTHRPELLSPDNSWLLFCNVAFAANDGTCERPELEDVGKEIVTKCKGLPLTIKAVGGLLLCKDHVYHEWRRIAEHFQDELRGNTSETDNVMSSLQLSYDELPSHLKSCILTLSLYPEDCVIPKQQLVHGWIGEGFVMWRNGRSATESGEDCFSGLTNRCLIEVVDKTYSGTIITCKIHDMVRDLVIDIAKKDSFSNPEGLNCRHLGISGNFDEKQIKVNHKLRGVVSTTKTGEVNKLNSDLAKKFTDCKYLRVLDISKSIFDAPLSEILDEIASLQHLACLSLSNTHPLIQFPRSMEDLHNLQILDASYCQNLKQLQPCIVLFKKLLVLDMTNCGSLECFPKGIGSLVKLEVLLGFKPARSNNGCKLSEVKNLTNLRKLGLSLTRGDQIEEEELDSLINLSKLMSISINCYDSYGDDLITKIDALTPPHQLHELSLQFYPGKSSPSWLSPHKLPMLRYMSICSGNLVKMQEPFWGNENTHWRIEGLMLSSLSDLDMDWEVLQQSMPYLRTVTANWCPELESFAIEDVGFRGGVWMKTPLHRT

[2] = target: T1, ZAR1^wt (Arabidopsis thaliana); assay: two-hybrid; Y3H: LexA-ZAR1 (full length or truncation) bait, 11 PBL preys, integrated ZED1^‘DT’ (N173D V212T), no HopZ1a

Row | Binder | binding [1] | binding [2]
1 | ZED1^wt, chromosomally integrated (protein, UniProt Q8LGB6 1-334) MSKNNKKKRRWDLKNGGILLEELIASFDGKTNPIRCFSSDQILKATDNFSESRIISSWGYFIWYKGVIEERQVSIKKWSSQNLSSFTEAYRDISVSSQMSGHKNALKLIGCCLEFDLPALVCEYTEHGPLNRDGGLSSGVVLPWKVRLKIAKEIASSVTYLHTAFPETIVHRNINPTNIFIDENWTAKLSDFWFCVAIPEGELYVEDDVKGVIGFVDPDYYWTMKVTEKVDIYSFGVVMLVLLSGRAAVFNGPDEAPMSLNDHVSEVMEKGEFDEIVDKEIWNDLGGDDDLVLRRSQVKAFLRLALRCVRYKKEDPVSGMLEVAKELKLIEKLS | binds | 
2 | ZED1^‘DT’, chromosomally integrated (protein, UniProt Q8LGB6 1-334) MSKNNKKKRRWDLKNGGILLEELIASFDGKTNPIRCFSSDQILKATDNFSESRIISSWGYFIWYKGVIEERQVSIKKWSSQNLSSFTEAYRDISVSSQMSGHKNALKLIGCCLEFDLPALVCEYTEHGPLNRDGGLSSGVVLPWKVRLKIAKEIASSVTYLHTAFPETIVHRDINPTNIFIDENWTAKLSDFWFCVAIPEGELYVEDDVKGTIGFVDPDYYWTMKVTEKVDIYSFGVVMLVLLSGRAAVFNGPDEAPMSLNDHVSEVMEKGEFDEIVDKEIWNDLGGDDDLVLRRSQVKAFLRLALRCVRYKKEDPVSGMLEVAKELKLIEKLS |  | binds
